The record followed here is publication PMC6919601, “Identification of Plasmodium dipeptidyl aminopeptidase allosteric inhibitors by high throughput screening” (PLoS ONE, 2019).

“And” between values parts separate entries of the source, which are not always exact repeats. Identical values can stand only once. About 230 (0.21%) of roughly 110,000 compounds showed an effect of 50% or more. The list shows a part of the results.
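Note: 30 min substrate incubation versus DMSO and 10 µM JCP410 controls.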

For the test, the target named is DPAP1 (Plasmodium falciparum, UniProt Q8IIJ9). Put plainly: primary screen, percent inhibition; read by cleavage of a fluorogenic dipeptide substrate; higher = more effect of the substance. Also noted: species or system P. falciparum D10 trophozoite lysates; single well.
Sequence of DPAP1 (Q8IIJ9 whole entry, looked up): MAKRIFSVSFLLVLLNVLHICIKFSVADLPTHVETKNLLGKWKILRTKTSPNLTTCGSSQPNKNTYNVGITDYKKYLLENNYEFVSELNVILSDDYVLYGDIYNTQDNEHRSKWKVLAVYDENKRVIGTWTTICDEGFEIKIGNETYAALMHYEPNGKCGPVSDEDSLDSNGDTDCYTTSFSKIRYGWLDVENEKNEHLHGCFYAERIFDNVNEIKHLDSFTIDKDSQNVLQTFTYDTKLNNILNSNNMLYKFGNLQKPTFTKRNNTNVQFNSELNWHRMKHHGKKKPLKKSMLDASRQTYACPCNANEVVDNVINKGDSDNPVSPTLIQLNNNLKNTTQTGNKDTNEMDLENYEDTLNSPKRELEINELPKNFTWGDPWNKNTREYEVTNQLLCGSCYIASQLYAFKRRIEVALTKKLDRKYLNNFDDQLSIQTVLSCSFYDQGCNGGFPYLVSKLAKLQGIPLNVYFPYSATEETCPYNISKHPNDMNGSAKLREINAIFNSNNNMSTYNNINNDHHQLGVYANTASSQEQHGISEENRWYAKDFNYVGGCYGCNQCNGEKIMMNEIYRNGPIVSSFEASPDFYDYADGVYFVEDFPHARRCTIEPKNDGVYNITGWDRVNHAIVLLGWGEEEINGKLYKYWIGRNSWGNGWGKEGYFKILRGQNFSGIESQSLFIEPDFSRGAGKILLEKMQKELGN
In the case of `O=S(=O)(NCc1ccc2c(c1)OCO2)c1ccc(-c2ccccc2)cc1`, the “% Inhibition @ 10 uM” value was determined as 1.28%. With `CCCOc1ccc(C2CC(=O)Nc3cc(C)c(C)cc32)cc1` (centres unmarked) the figure was -20%. Regarding `Cc1ccc(-c2cc(C(=O)N3CCC(C(N)=O)CC3)no2)cc1`, the “% Inhibition @ 10 uM” value is recorded as 1.91%. Then `Cc1ccccc1C(=O)NC1(C(F)(F)F)C(=O)Nc2c1c(=O)n(C)c(=O)n2C` (centres unmarked), with 0.032%; and `Cc1cc(C(=O)O)c(NC(=O)c2ccccc2Cl)s1`, with -4.48% and 1.19%.

On to `O=Cc1cccn1-c1c(C(=O)O)cnn1-c1ccccc1`, for which the “% Inhibition @ 10 uM” value turned out to be 1.42%. Then `CCOC(=O)c1cnc(SCc2cccc(C(F)(F)F)c2)nc1N`, with 3.69%. Then `Cc1nn(CCCC(=O)NC2CCCc3ccccc32)c(=O)c2cc3sccc3n12` (centres unmarked), with 0.137%; and `CCOc1ccc2sc(/C=N/Cc3ccc(F)cc3)c(O)c2c1`, with -0.48% and 5.24%; and `CCOC(=O)c1sc(NC(=O)CSc2nnc(-c3sc4ccccc4c3Cl)o2)nc1C`, with -5.85%. As for `O=C(NCc1ccccc1)c1ccc(OC2CSC2)cc1`, the “% Inhibition @ 10 uM” value was -1.33%. With `N#CC1=C(N)Oc2[nH]nc(-c3ccncc3)c2C1c1ccncc1` (centres unmarked) the figure was 3.92%; with `CCc1nnc(NC(=O)CSc2nc3c(c(=O)n2CCc2ccccc2)SC(C)C3)s1` (centres unmarked), -4.81%. Regarding `O=C(O)c1ccc(C(=O)c2ccc3c(c2)C(=O)N(CC2CCCO2)C3=O)cc1` (centres unmarked), the “% Inhibition @ 10 uM” value was -1.81%.

`Cc1ccc(N2C(=O)c3ccc(C(=O)Nc4cccc(O)c4)cc3C2=O)cc1C`: the “% Inhibition @ 10 uM” value was found to be 0.774%. With `Cc1ccc(CN2CCC(CNC(=O)CCc3nnc4ccc(N5CCC(C)CC5)nn34)C2)cc1` (centres unmarked) the figure was 3.77%; with `COc1ccccc1C1C2=C(O)CC(C)(C)CC2=NC(C)=C1C(=O)Nc1ccccn1` (centres unmarked), -4.43%; with `CN1C(=O)c2ccc(C(=O)NCc3ccc(C(=O)O)cc3)cc2C1=O`, 5.44%. Consider `CC1(C)OC(=O)C(=CN2CCCC2C(=O)O)C(=O)O1` (centres unmarked), for which the “% Inhibition @ 10 uM” value amounted to 3.59%.

Turning to `Oc1ccccc1-c1cc(-c2ccccc2)nc(N2CCCC2)n1`, the “% Inhibition @ 10 uM” value was 6.53%.

Turning to `CN(C)c1ccc(C2C(C(=O)c3ccc(Cl)cc3)=C(O)C(=O)N2Cc2ccco2)cc1` (centres unmarked), the “% Inhibition @ 10 uM” value is on record as -6.68%. Then `O=C1c2ccccc2C(=O)c2c1nc1n2CCOC1`, with 2.55%. Then `Cc1ccccc1NC(=O)c1ccc(OC(C)C(=O)O)cc1` (centres unmarked), with -1.82%. `O=CN1CCN(C2CCN(CCc3ccccc3)CC2)CC1`: the “% Inhibition @ 10 uM” value was -4.08%. For the compound `O=C(c1cccs1)N1CCN(Cc2ccccc2)CC1`, the “% Inhibition @ 10 uM” value is given as -1.64%.

Consider `O=C(NC1CCCCC1)n1c(=O)oc2ccc(Cl)cc21`, for which the “% Inhibition @ 10 uM” value was -11.4%.

As to `CCc1ccc(CNc2ncnc3onc(-c4ccc(F)cc4)c23)cc1`, the “% Inhibition @ 10 uM” value is 1.92%.

For `COc1ccc(C(=O)Nc2ccc(Cl)cn2)cc1Cl`, the “% Inhibition @ 10 uM” value is on record as -0.357%. With `CC1=NOC(=O)/C1=C/c1ccc(O)cc1` the figure was -1.6%; with `O=C(O)CNC(=O)c1cn(-c2ccccc2)nc1-c1ccccc1`, -4.61%. With `CCc1ccc(S(=O)(=O)c2nnn3c2nc(NCCOC)c2cc(Cl)ccc23)cc1` the figure was 0.291%. Consider `CCOc1ccccc1NC(=O)c1cccc(Cl)c1`, for which the “% Inhibition @ 10 uM” value was -4.26%. Regarding `CCN(CC)S(=O)(=O)c1nnc(NC(=O)/C=C/c2ccccc2)s1`, the “% Inhibition @ 10 uM” value stood at 4.86%. For the compound `C=C(C)CSc1nc(N)c2c3c(sc2n1)COC(C)(C)C3`, the “% Inhibition @ 10 uM” value is listed as 1.01%.

Consider `CC1(C)CC(=O)C2=C(C1)N(c1ccc(Br)cc1)C(N)=C(C#N)C2c1ccsc1` (centres unmarked), for which the “% Inhibition @ 10 uM” value was determined as 2.38%. Then `COc1cc(C(=O)NCCC(=O)NC2CCCc3ccccc32)cc(OC)c1OC` (centres unmarked), with -4.06%; and `CCCCCc1nnc(NC(=O)OCCC)s1`, with 3.74%. With `CCc1ccc(-c2cc3c(=O)n(CC(=O)NCc4ccccn4)nc(C)n3n2)cc1`, the “% Inhibition @ 10 uM” value is given as -1.08%. Take `O=C(c1cnn(-c2ccccc2)c1-n1cccc1)N1CCOCC1`: the “% Inhibition @ 10 uM” value was 0.137%. Then `O=C(Cn1ncn2c(cc3ccccc32)c1=O)NCc1ccc2c(c1)OCO2`, with 0.0198%; and `CC(C)N(CCCNC(=O)c1nn(C)c2c1CSc1ccccc1-2)Cc1ccccc1`, with -1.72%. `Cc1cc(C)c2c(N)c(C(=O)c3ccc(F)cc3)sc2n1`: the “% Inhibition @ 10 uM” value was -0.546%. With `CCOc1ccc(CN2CCNCC2CCO)cc1` (centres unmarked) the figure was -2.91%; with `CCOc1ccc(OCCSc2nnnn2C2CCCCC2)cc1`, -1.48%. With `CCOc1ccc(NC2=NC(=O)CC(C(=O)Nc3ccc(OC)cc3)N2)cc1` (centres unmarked) the figure was 3.56%; with `CC1=C(C(=O)OC(C)C)C(c2ccc(Cl)c(Cl)c2)N2C(=O)CCSC2=N1` (centres unmarked), -7.58%. Turning to `Cc1nnc(N2CCCC(C(=O)N3CCC(C)CC3)C2)c2nn(-c3ccc(Cl)cc3)c(C)c12` (centres unmarked), the “% Inhibition @ 10 uM” value stood at 3.42%. Then `CC1CCCN(CCCNC(=O)Cn2nc(-c3ccccc3)ccc2=O)C1` (centres unmarked), with 2.18%; and `O=c1cccc2n1CC1CC2CN(c2nc(Cl)nc(NCCN3CCOCC3)n2)C1` (centres unmarked), with 2%. Regarding `Cc1nn(C)c(C)c1CN(C)C(=O)c1cnn2c(C(F)F)cc(-c3ccccc3)nc12`, the “% Inhibition @ 10 uM” value came out at 2.22%.
